Five molecules from PMC6008652 can be followed below.

Substitutions are numbered along the chain they refer to. Numbers in names are those of the source. These are yes or no findings as the source states them, for the method shown. For some of these results: In cells and extracts the contact can be indirect. Some entries that bind do so weakly or less than the wild type. For some of these results: Where a sequence is shown, tags or fusion partners need not be part of it.

Test [1] deals with T1, IQM4ΔC (truncated IQM4, amino acid residues 1-160) (Arabidopsis thaliana) (UniProt O64851).
T1 sequence: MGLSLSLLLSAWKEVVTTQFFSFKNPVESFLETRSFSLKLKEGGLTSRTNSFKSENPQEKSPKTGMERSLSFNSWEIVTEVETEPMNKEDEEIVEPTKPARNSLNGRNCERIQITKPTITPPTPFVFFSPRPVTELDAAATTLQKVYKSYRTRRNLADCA
Nature of the test: far-Western, overlay or dot blot; CaM gel overlay: 50 µg protein from induced E. coli with pET32a-IQM4ΔC separated by SDS-PAGE, transferred to nitrocellulose, probed with biotinylated CaM5 in the presence of 5 mM EGTA; only the binder purified.

Test [2] addresses T1, IQM4ΔC (truncated IQM4, amino acid residues 1-160) (Arabidopsis thaliana). In words: far-Western, overlay or dot blot; CaM gel overlay: 50 µg protein from induced E. coli with pET32a-IQM4ΔC separated by SDS-PAGE, transferred to nitrocellulose, probed with biotinylated CaM5 in the presence of 1 mM CaCl2; only the binder purified.
For test [3], the target named is BD-CaM5 (Arabidopsis calmodulin 5, full length ORF fused with the Gal4 DNA binding domain) (Arabidopsis thaliana) (UniProt Q682T9). Nature of the test: two-hybrid; Matchmaker Gal4 system, yeast strain AH109; bait in pGBKT7, prey in pGADT7; growth on SD-4 (lacking Leu, Trp, His, Ade), 5-7 days at 30°C.
Test [4] has as its target cEYFP-CaM5 (full-length CaM5 fused to the C-terminus of cEYFP) (Arabidopsis thaliana) (UniProt Q682T9). Nature of the test: split reporter; BiFC in Arabidopsis mesophyll protoplasts, 18 h at 23°C in the dark, confocal laser scanning microscopy.
Test [5] shares this target. Nature of the test: split reporter; BiFC in onion epidermal cells, biolistic bombardment, overnight at 25°C in the dark, epifluorescence microscopy.

With “biotinylated CaM5 (His-tagged calmodulin 5 labeled with biotin) (from UniProt Q682T9 1-149)”, the binding result in test [1] and in test [2] was “binds” in each case.

B1: AD-IQM4^Δ143-144 (IQM4 with deletions of Leu143 and Gln144) (protein, UniProt O64851 1-532)
chain: MGLSLSLLLSAWKEVVTTQFFSFKNPVESFLETRSFSLKLKEGGLTSRTNSFKSENPQEKSPKTGMERSLSFNSWEIVTEVETEPMNKEDEEIVEPTKPARNSLNGRNCERIQITKPTITPPTPFVFFSPRPVTELDAAATTKVYKSYRTRRNLADCAVVVEELWWKTLDAAALNLSSVAFFEEEKHETAVSKWARARTRAAKVGKGLSKDEKAQKLALQHWLEAIDPRHRYGHNLHFYYDVWSASMSAQPFFYWLDIGDGKDVNLEHHPRSVLQKQCIKYLGPLEREAYEVIVEDGKLMNKQSMTLINSTEDSKSIFVLSTTRTLYVGQKKKGRFQHSSFLSGGATTAAGRLVAREGILEAIWPYSGHYLPTEDNFNEFISFLEENNVDMTNVKRCSVNEEYSSFNSSGYEEEATKEEEAEKKPAETIVTEEQEEEKERERPVFQLAKRLSCKWNSGVGPRIGCVRDYPMELQSQAFEQVSLSPRISPGSTRFPSPYGPIPSPRPSPRVRVSPRLAYMGIPSPRVQVNC
Regarding B1, the binding entry in test [3] is on record as “no binding”.

B2: AD-IQM4 (Arabidopsis thaliana IQM4, full length ORF fused with the Gal4 activation domain) (protein, UniProt O64851 1-532)
chain: MGLSLSLLLSAWKEVVTTQFFSFKNPVESFLETRSFSLKLKEGGLTSRTNSFKSENPQEKSPKTGMERSLSFNSWEIVTEVETEPMNKEDEEIVEPTKPARNSLNGRNCERIQITKPTITPPTPFVFFSPRPVTELDAAATTLQKVYKSYRTRRNLADCAVVVEELWWKTLDAAALNLSSVAFFEEEKHETAVSKWARARTRAAKVGKGLSKDEKAQKLALQHWLEAIDPRHRYGHNLHFYYDVWSASMSAQPFFYWLDIGDGKDVNLEHHPRSVLQKQCIKYLGPLEREAYEVIVEDGKLMNKQSMTLINSTEDSKSIFVLSTTRTLYVGQKKKGRFQHSSFLSGGATTAAGRLVAREGILEAIWPYSGHYLPTEDNFNEFISFLEENNVDMTNVKRCSVNEEYSSFNSSGYEEEATKEEEAEKKPAETIVTEEQEEEKERERPVFQLAKRLSCKWNSGVGPRIGCVRDYPMELQSQAFEQVSLSPRISPGSTRFPSPYGPIPSPRPSPRVRVSPRLAYMGIPSPRVQVNC
Turning to B2, in test [3], the binding result is reported as “binds”.

B3: nEYFP-IQM4 (full-length IQM4 fused to the C-terminus of nEYFP) (protein, UniProt O64851 1-532)
chain: B2 chain
In the case of B3, the binding result in test [4] and in test [5] was “binds” in each case.

B4: AD-IQM4^L143N (IQM4 with Leu143 substituted by Asn) (protein, UniProt O64851 1-532)
chain: B2 chain with L143N
For B4, the binding entry in test [3] was “no binding”.
